Assay results as given in PubChem BioAssay AID720647 (Broad Institute, 2013).
The whole screen tested about 380,000 compounds, of which about 1,300 (0.34%) were called active. The shares of active, inactive and inconclusive entries below differ from those in the screen.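 The calls were made as follows: active = drop in luminescence signal, shown as inhibition above about 50% in the replicate tests (limit read from the data, passing the limit was not always enough); inconclusive = probably only some replicates passing the limit; inactive = the rest.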 The source holds several records for some structures; these can differ, active in one and inactive in another.

system: Drosophila bursicon receptor LGR2 (rickets); assay: inhibitors of bursicon-induced LGR2 CRE-luciferase signal, primary screen, cell-based, HEK293, CRE-luciferase reporter, bursicon stimulation (AID 720647); conditions: bursicon-stimulated, 4 h, at 9.99 µM, stronger effect = higher value;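 also: agonist challenge used bursicon conditioned medium at about half maximal strength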

Q: With CN1c2ccc(-c3ccc(F)cc3)cc2[C@H]2[C@H](CCN2C(=O)Nc2ccc(F)cc2)[C@H]1CO as the compound, how does the inhibition read?
A: The inhibition was inconclusive: 53.5%.

Q: Which inhibition does the source give for CCOCCCNC(=O)/C(C#N)=C/c1ccc([N+](=O)[O-])o1 here?
A: The inhibition was inconclusive: 38.6%.

Q: How did the inhibition turn out when O=C(Nc1ccc(CN2CCOCC2)cc1)c1cc2ccccn2n1 was run?
A: The inhibition was active: 78.1%.

Q: How did the inhibition turn out when COc1ccccc1CCn1cnc(-c2cccc(Br)c2)c1C(C)C was run?
A: Its inhibition is inconclusive: 44.7%.

Q: How did the inhibition turn out when C[C@H](CO)N1C[C@H](C)[C@H](CN(C)C(=O)Nc2ccccc2)OCCCC[C@H](C)Oc2ccc(NC(=O)Nc3ccccc3)cc2C1=O was run?
A: Its inhibition is inconclusive: 33.8%.

Q: How did the inhibition turn out when COc1ccc(CNC(=O)CSc2nnc3nc(C)cc(C)n23)cc1OC was run?
A: The inhibition was inconclusive: 8.71%.

Q: For Oc1ccc(-c2csc(-c3cccnc3)n2)c(O)c1, which inhibition is on record?
A: The inhibition was inconclusive: 4.67%.

Q: With O=C(COC(=O)c1ccc(S(=O)(=O)N2CCCCC2)cc1)NCc1ccc(F)cc1 as the compound, how does the inhibition read?
A: The inhibition was inconclusive: 13%.

Q: For CSc1nnc(-c2ccc(Cl)cc2Cl)o1, which inhibition is on record?
A: The inhibition was inactive: -53.5%.

Q: Which inhibition does the source give for O=Nc1c2cc(-c3ccccc3)[nH]nc-2c2ccccc12 here?
A: The inhibition was inconclusive: 47.6%.

Q: How did the inhibition turn out when CCN(C[C@@H]1N[C@@H](CO)[C@H]1c1ccc(-c2ccccc2)cc1)C(=O)COC was run?
A: The inhibition was inactive: 12.5%.

Q: How did the inhibition turn out when COc1ccc(NC(=O)N(C)C[C@@H]2OCCCC[C@H](C)Oc3ccc(NC(=O)C4CCCCC4)cc3C(=O)N([C@H](C)CO)C[C@@H]2C)cc1 was run?
A: The inhibition was inconclusive: -9.39%.

Q: With O=C(O)CSc1cc(NS(=O)(=O)c2cccc([N+](=O)[O-])c2)c2ccccc2c1O as the compound, how does the inhibition read?
A: Its inhibition is inconclusive: 51.3%.

Q: For COCC#Cc1cnc2c(c1)C(=O)N([C@@H](C)CO)C[C@H](C)[C@H](CN(C)Cc1ccc(F)cc1)O2, which inhibition is on record?
A: The inhibition was inactive: 7.09%.

Q: How did the inhibition turn out when COc1cccc(-c2ccc(C3[C@@H]4CN(C(=O)C5CC5)C[C@H]3N4)cc2)c1 (some centres undefined) was run?
A: Its inhibition is active: 62.3%.

Q: For O=[N+]([O-])c1ccc(Sc2ccncn2)c([N+](=O)[O-])c1, which inhibition is on record?
A: Its inhibition is inconclusive: 53.8%.

Q: COC(=O)c1c(O)cc(C(C)(C)C)n(-c2ccc(F)cc2)c1=O was tested. Which inhibition did it give?
A: Its inhibition is inconclusive: 54.8%.

Q: For Cc1cc(O)c(C(C)C)cc1C1(c2cc(C(C)C)c(O)cc2C)OC(=O)c2ccccc21, which inhibition is on record?
A: The inhibition was active: 69.7%.

Q: Which inhibition does the source give for CC(C)N=C(NS(=O)(=O)c1ccccc1)C(Cl)(Cl)Cl here?
A: Its inhibition is active: 62%.

Q: With CC1CCC(C(C)C)C(OC(=O)Cn2c(-c3ccc(F)cc3)[n+](C)c3ccccc32)C1 (centres undefined) as the compound, how does the inhibition read?
A: Its inhibition is inconclusive: 45.7%.

Q: For Oc1ccc(C=NNc2nc3ccccc3s2)c(O)c1, which inhibition is on record?
A: Its inhibition is inconclusive: 52%.

Q: CN(C)c1ccc(N=Nc2ccccc2Br)cc1 was tested. Which inhibition did it give?
A: Its inhibition is inconclusive: 49.6%.

Q: CCC(=O)N1C[C@H](O)COC[C@H]2O[C@H](CC(=O)NCc3cc(F)cc(F)c3)CC[C@@H]21 was tested. Which inhibition did it give?
A: The inhibition was inactive: -0.487%.

Q: With COc1ccc(CC2(CO)CCN(Cc3cccc4nccnc34)CC2)cc1 as the compound, how does the inhibition read?
A: The inhibition was inconclusive: 50.4%.

Q: With Cc1cc(C(=O)COC(=O)c2cccnc2Cl)c(C)n1C as the compound, how does the inhibition read?
A: Its inhibition is inconclusive: 48.7%.

Q: For O=C(O)c1ccc(-c2noc(-c3ccccc3Cl)n2)cc1, which inhibition is on record?
A: Its inhibition is inconclusive: 58.8%.

Q: Which inhibition does the source give for O/N=C(/CCc1ccccc1)c1ccc2c(c1)OCCO2 here?
A: The inhibition was inactive: -72.5%.

Q: For O=[N+]([O-])/C=C\c1ccc(N2CCOCC2)cc1, which inhibition is on record?
A: The inhibition was inconclusive: 45.3%.

Q: For CN(C)C(=O)C[C@H]1C=C[C@H](NC(=O)c2ccc(F)cc2)[C@H](CO)O1, which inhibition is on record?
A: The inhibition was inactive: 3.13%.

Q: With COc1ccc(NC(=O)N(C)C[C@@H]2OCCCC[C@@H](C)Oc3ccc(NC(=O)Nc4ccc(F)cc4)cc3C(=O)N([C@H](C)CO)C[C@H]2C)cc1 as the compound, how does the inhibition read?
A: Its inhibition is inactive: 6.28%.

Q: COc1ccc2cc3cc(C(=O)NC4CC4)sc3nc2c1 was tested. Which inhibition did it give?
A: The inhibition was inconclusive: 52.8%.

Q: For CNC(=S)N1N=C2c3ccccc3CCC2C1c1ccccc1Cl (centres undefined), which inhibition is on record?
A: The inhibition was inactive: -3.13%.

Q: For COc1ccccc1-[n+]1c(C)cc(/C=C2\Sc3ccccc3N2C)cc1C, which inhibition is on record?
A: The inhibition was inconclusive: 39.3%.

Q: Which inhibition does the source give for C[C@@H]1CN([C@H](C)CO)C(=O)c2cc(NC(=O)Nc3cccc4ccccc34)ccc2O[C@@H]1CN(C)C(=O)Nc1ccccc1 here?
A: Its inhibition is inconclusive: -6.62%.

Q: With CC(=O)NC(c1ccc(N(C)C)cc1)c1cc(Cl)c2cccnc2c1O (centres undefined) as the compound, how does the inhibition read?
A: Its inhibition is inactive: 15.1%.

Q: Which inhibition does the source give for CN(C)c1ccc(/C=C/c2ccc3c4ccccc4ccc3[n+]2-c2ccccc2)cc1 here?
A: Its inhibition is inconclusive: 54%.

Q: With Cc1cc(C)c(O)c(C(=O)CC2CC(=O)NC(=O)C2)c1 as the compound, how does the inhibition read?
A: Its inhibition is active: 64.6%.

Q: With COc1ccc(NC(=O)Nc2ccc3c(c2)C(=O)N([C@H](C)CO)C[C@H](C)[C@H](CN(C)CC2CCCCC2)OCCCC[C@H](C)O3)cc1 as the compound, how does the inhibition read?
A: Its inhibition is inconclusive: 7.23%.

Q: For CC(=O)OCCCNc1cc(Sc2ccc(Cl)cc2)c2nonc2c1[N+](=O)[O-], which inhibition is on record?
A: The inhibition was inconclusive: 41.8%.

Q: How did the inhibition turn out when Clc1ccccc1-c1nnc(-c2ccc3c(c2)OCO3)o1 was run?
A: The inhibition was inactive: -3.3%.

Q: With O=S1(=O)CCOC[C@H](CC2CCCCC2)N1Cc1ccccc1F as the compound, how does the inhibition read?
A: The inhibition was inconclusive: 50.5%.

Q: For COc1ccc2c3c(n(C)c2c1)[C@@H](CO)N(Cc1cccnc1)CC31CN(C(=O)c2cccnc2)C1, which inhibition is on record?
A: The inhibition was inactive: -13.1%.

Q: How did the inhibition turn out when COc1ccc(/C=C2\CCc3ccccc3C2=O)cc1O was run?
A: The inhibition was inconclusive: 57.1%.

Q: How did the inhibition turn out when COc1cccc(/C=N/Nc2cc(C)nc(-c3ccccc3O)n2)c1O was run?
A: Its inhibition is active: 90.5%.

Q: How did the inhibition turn out when CCOC(=O)C(C)N1c2cccc3cccc(c23)S1(=O)=O (centres undefined) was run?
A: The inhibition was inconclusive: -19.9%.

Q: How did the inhibition turn out when CCCCCc1c(-c2ccccc2OC)ncn1CCc1ccccc1OC was run?
A: The inhibition was inconclusive: 41%.

Q: For CO[C@H]1CN(C)C(=O)c2ccc(NC(=O)Nc3ccccc3F)cc2OC[C@H](C)NC[C@@H]1C, which inhibition is on record?
A: The inhibition was inactive: -8.34%.

Q: CS(=O)(=O)c1ccc(C(=O)OCC(=O)NC(=O)C2CCCCC2)cc1[N+](=O)[O-] was tested. Which inhibition did it give?
A: Its inhibition is active: 59.8%.

Q: With COc1cccc(C=Nc2cc(C)cc(C)c2)c1O as the compound, how does the inhibition read?
A: Its inhibition is inactive: 2.92%.

Q: How did the inhibition turn out when COc1cccc(NC(=O)c2cccc(C(=O)Nc3cccc(OC)c3)c2)c1 was run?
A: The inhibition was inactive: 5.95%.

Q: Which inhibition does the source give for Cc1ccn2cc(-c3ccc(Br)cc3)nc2c1 here?
A: The inhibition was active: 58.9%.

Q: With Cc1ccnc(NC(=O)/C=C/c2cccs2)c1 as the compound, how does the inhibition read?
A: The inhibition was inactive: 13.4%.

Q: C[C@@H]1CN([C@@H](C)CO)C(=O)c2c(c3ccccc3n2C)-c2ccccc2CO[C@@H]1CN(C)S(=O)(=O)c1ccc(C(F)(F)F)cc1 was tested. Which inhibition did it give?
A: The inhibition was inconclusive: 26.7%.

Q: Which inhibition does the source give for O=C(CC1CC1)N1CC2(C1)[C@@H](c1ccccc1)[C@@H](CO)N2C(=O)c1cnccn1 here?
A: Its inhibition is inactive: -9.7%.

Q: Cc1ccc2nc(NC(=O)CCCC(=O)O)sc2c1 was tested. Which inhibition did it give?
A: Its inhibition is inconclusive: 52.9%.

Q: With O=C(COC(=O)/C=C/c1ccc(F)cc1)Nc1ccc(Cl)cn1 as the compound, how does the inhibition read?
A: The inhibition was inactive: -5%.

Q: With O=C(Nc1cccc(Cl)c1)Nc1nnc(CC2=CCCCC2)s1 as the compound, how does the inhibition read?
A: Its inhibition is inactive: -3.8%.

Q: With Cc1ccc(-c2c[n+]3c(n2-c2ccccc2)CCC3)cc1 as the compound, how does the inhibition read?
A: The inhibition was inactive: 1.86%.

Q: With COc1ccc2c3c(n(C)c2c1)[C@@H](CO)NCC31CCN(S(=O)(=O)c2ccc(C)cc2)CC1 as the compound, how does the inhibition read?
A: Its inhibition is inactive: -4.71%.

Q: How did the inhibition turn out when CN(C)C(=O)CCc1ccc2c3c([nH]c2c1)[C@]1(C)[C@@H](C(=O)N2CCOCC2)C[C@H](CC(=O)NCCCn2ccnc2)C(=O)N1CC3 was run?
A: The inhibition was inconclusive: 68%.

Q: C[C@H]1CN([C@@H](C)CO)C(=O)c2cc(C#CCc3ccccc3)cnc2O[C@H]1CN(C)Cc1ccccc1 was tested. Which inhibition did it give?
A: Its inhibition is inconclusive: -7.79%.

Q: With Cc1ccc(S(=O)(=O)Nc2ccc3c(c2)C(=O)N([C@H](C)CO)C[C@@H](C)[C@H](CN(C)S(=O)(=O)c2cccs2)OCCCC[C@@H](C)O3)cc1 as the compound, how does the inhibition read?
A: Its inhibition is inconclusive: 57%.

Q: For COc1cccc(-c2ccc([C@@H]3[C@H]4CN(C(=O)C5CCCCC5)CC(=O)N4[C@H]3CO)cc2)c1, which inhibition is on record?
A: The inhibition was inactive: -1.81%.

Q: How did the inhibition turn out when O=Cc1cnc(N2CCOCC2)nc1 was run?
A: Its inhibition is inconclusive: -14.1%.

Q: For CCc1cccc(CC)c1NC(=S)Nc1cccc(Cl)c1Cl, which inhibition is on record?
A: The inhibition was inactive: 5.81%.

Q: For C[C@@H]1CN([C@H](C)CO)C(=O)Cc2cc(NC(=O)Nc3ccc(F)cc3)ccc2O[C@@H]1CN(C)CC1CCCCC1, which inhibition is on record?
A: The inhibition was inconclusive: 68.5%.

Q: Which inhibition does the source give for CCOc1cccc(/C=C/c2ccc3ccccc3n2)c1OC(C)=O here?
A: Its inhibition is inconclusive: 59.8%.

Q: How did the inhibition turn out when Cc1ccnc(NC(=O)c2cccc(S(=O)(=O)N3CCN(c4ccccc4)CC3)c2)c1 was run?
A: The inhibition was inconclusive: 26.9%.

Q: With CN1c2ccc(C3=CCCCC3)cc2[C@H]2[C@H](CCN2C(=O)C2CCC2)[C@@H]1CO as the compound, how does the inhibition read?
A: Its inhibition is inactive: -5.42%.

Q: How did the inhibition turn out when CCC[C@H](CN[C@@H](CNC)[C@H](C)CC)NCCc1cc(C(F)(F)F)cc(C(F)(F)F)c1 was run?
A: The inhibition was active: 63.3%.

Q: For O=C(Nc1nc(-c2ccccc2)cs1)c1ccccc1NS(=O)(=O)c1ccc(F)cc1, which inhibition is on record?
A: Its inhibition is inconclusive: 50.7%.

Q: Which inhibition does the source give for O=C(Nc1nc(-c2nc3ccccc3s2)cs1)c1ccc(S(=O)(=O)N2CCOCC2)cc1 here?
A: The inhibition was inconclusive: 32.9%.

Q: COc1ccccc1NC(=O)N1CCCCN2[C@@H](CO)[C@H](c3ccc(-c4cccc(F)c4)cc3)[C@@H]2C1 was tested. Which inhibition did it give?
A: Its inhibition is active: 75.7%.

Q: How did the inhibition turn out when C[C@@H]1CN([C@H](C)CO)C(=O)Cc2cc(NS(=O)(=O)c3ccc(Cl)cc3)ccc2O[C@@H]1CN(C)Cc1ccc(C(F)(F)F)cc1 was run?
A: The inhibition was inconclusive: 23.8%.

Q: With CC(C)OC(=O)c1ccc(NCc2cc(O)ccc2O)cc1Cl as the compound, how does the inhibition read?
A: Its inhibition is inconclusive: 55%.

Q: For O=C(CSc1ccc2nnc(-c3ccc(Cl)cc3)n2n1)N1CCCc2ccccc21, which inhibition is on record?
A: Its inhibition is inconclusive: 50.9%.

Q: Which inhibition does the source give for O=C1CC(c2ccc(O)cc2)Oc2cc(O)cc(O)c21 (centres undefined) here?
A: The inhibition was inactive: -5.96%.

Q: How did the inhibition turn out when C[C@@H]1CN([C@@H](C)CO)C(=O)c2cccc(NC(=O)c3ccc(-c4nccs4)cc3)c2O[C@@H]1CN(C)C(=O)Nc1ccc(C(F)(F)F)cc1 was run?
A: Its inhibition is inconclusive: 50.9%.

Q: Which inhibition does the source give for Nc1ccc2c(c1)C(=O)c1ccc(Br)cc1-2 here?
A: The inhibition was inconclusive: -4.21%.
